Measurements taken from paper PMC6365497, “2-aminoimidazoles collapse mycobacterial proton motive force and block the electron transport chain” (Scientific Reports, 2019).

Test system: M. tuberculosis
Test: Quantification of intracellular ATP

SMILES	Intracellular ATP levels (RLUs/CFUs) (M. tuberculosis, 2 h treatment, 2B8/RA13 31.25–125 µM, CCCP 15 µM, BDQ 18 µM, TRZ 80 µM)	Intracellular ATP levels (RLUs/CFUs)
COc1nc2ccc(Br)cc2cc1[C@@H](c1ccccc1)[C@@](O)(CCN(C)C)c1cccc2ccccc12 [BDQ, bedaquiline, reference compound]	significantly reduced	
CCCCCCCCCCCCCNC(=O)CCCc1cnc(N)[nH]1 [RA13]		not affected

Read-outs that look alike come from different tables or passages of the source.
